The values below come from PubChem BioAssay AID1508623 (National Center for Advancing Translational Sciences (NCATS), 2021).

About 450 (0.94%) of roughly 48,000 compounds were called active. Another 19% or so got no clear call; they are omitted. Calls follow the shape of the dose curve; as a rule, active = well fitted inhibition curve with a large enough effect; inconclusive = small, poorly fitted or top-dose-only effect; inactive = no such curve, though single readings can be large or run the other way. The list shows a part of the results.

A short description of this assay: Primary qHTS for Identification of Small Molecule Inhibitors of Huntingtin Promoter Activity. Also: nearly all actives have a fitted effect of over 50% in size. Particulars: HEK293 HTT promoter firefly luciferase reporter (activity 0% = vehicle and -100% = no light), 24 h; series mostly up to 57.5 µM; activity change, negative = inhibition: at the top concentration. Put shortly:
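Firefly luciferase readout (Dual-Glo, 10 min RT) after 24 h, 37 °C compound exposure (final up to 57.5 uM) of HEK293 reporter cells cultured 24 h beforehand; PTC124 at 50 uM final as control inhibitor; activity scaled vehicle 0%, zero RLU -100%.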
In general terms: Quantitative high-throughput screening tests each substance at several concentrations.
On to `Cc1ccc(C)c(Cn2c(=O)n(Cc3ccco3)c(=O)c3oc4ccccc4c32)c1`, for which the “activity change, negative = inhibition” value was inactive: -15.8%.
For `CCc1ccccc1NC(=O)c1sc2nc3n(c(=O)c2c1C)CCC3` the value was inactive: 44%.
For `CCN1CCOC(=O)C1CC(=O)Nc1ccc(C(C)=O)cc1` (centres undefined), the “activity change, negative = inhibition” value was inactive: -5.86%.
To `COc1cc(CN(C(=O)c2ccc(OC(C)C)cc2)C2CCS(=O)(=O)C2)cc(OC)c1OC` (centres undefined) belongs inactive: -14.5%.
Take `O=C(NCCCc1nc2ccccc2n1Cc1ccccc1)C1CCCCC1`: the “activity change, negative = inhibition” value is inactive: -29%.
Take `Cc1ccccc1OCc1ccc(-c2nc(C#N)c(N3CCN(c4ccccc4)CC3)o2)o1`: the “activity change, negative = inhibition” value was inactive: -23.3%.
To `CCOc1ccc(CNC(=O)c2ccc(NC(=O)N3CCSc4ncccc43)cc2)cc1OC` belongs inactive: -16.4%; to `COc1cccc(Cn2c(C)c(CNCc3ccccc3Cl)c(C(=O)O)c2C)c1`, inactive: 12.4%; to `CN(C)c1cc2c(cc1NC(=O)c1ccc(F)cc1)n(C)c(=O)n2C`, inactive: -10.7%.
On to `CCc1ccc(-c2cc(C)no2)cc1S(=O)(=O)Nc1ccc(C)cn1`, for which the “activity change, negative = inhibition” value was inactive: -35.3%.
For the compound `Cc1cccc(-c2nnn3c2nc(NCc2ccccc2)c2ccccc23)c1`, the “activity change, negative = inhibition” value was inactive: 15.7%.
For `CC(C)CCNC(=O)C1CCN(S(=O)(=O)c2cccc3nsnc23)CC1` the value was inactive: -4.98%; for `CNC(=O)C1CCN(Cc2cc3ccccc3n2Cc2cccc(C)c2)CC1`, inactive: -4.44%.
Take `CCc1ccc(-n2nc(CO)c(C(=O)NCC(c3ccccc3)c3ccccc3)n2)cc1`: the “activity change, negative = inhibition” value is inactive: -0.591%.
For `Cc1ccc(N(Cc2cc3ccccc3[nH]c2=O)C(=O)c2cccc(Cl)c2)cc1` the value was inactive: -23.7%; for `CCN(CC)CCCNC(=O)CSc1nc2nc(C)c(Cc3c(F)cccc3Cl)c(C)n2n1`, inactive: -8.62%.
To `Cc1ccc(-c2cn3c(n2)sc2cc(C(=O)NCc4cccs4)ccc23)c(C)c1` belongs inactive: 4.2%.
To `CC(C)NC(=O)C(c1ccccc1)N1Cc2ccccc2C1=O` (centres undefined) belongs inactive: -18.9%; to `CC(C)c1ccc2occ(CC(=O)Nc3ccccc3Cl)c2c1`, inactive: -10.8%.
For `Cc1ccc(C)c(NC(=O)Cn2c(=O)n(Cc3ccc4c(c3)OCO4)c(=O)c3oc4ccccc4c32)c1`, the “activity change, negative = inhibition” value is inactive: -15.6%.
Turning to `CC1=C(C(N)=O)C(c2cccc(C)c2)n2nc(-c3cccc(C)c3)nc2N1` (centres undefined), the “activity change, negative = inhibition” value was inactive: -17%.
For `CCCc1nc2c(C)cc(-c3nc4ccccc4n3C)cc2n1Cc1ccc(-c2ccccc2C(=O)O)cc1` the value was “inactive”; for `Cc1ccc(CSc2nnc(-n3c(=O)c(C#N)cc4c(=O)n5cc(C)ccc5nc43)s2)cc1`, inactive: -23.9%; for `COc1ccc(-c2noc(CSc3nc(C)cc(=O)[nH]3)n2)cc1OC`, inactive: -20.2%.
To `CCCCOC(=O)c1ccc(O)cc1` belongs inactive: 7.69%; to `OCCC#Cc1nc(-c2ccc(F)cc2)c(-c2ccncc2)n1CCCc1ccccc1`, inactive: -15.3%.
To `Cc1ccc(CNC(=O)c2cc(-c3ccc(C)cc3)nc3n[nH]c(-c4ccc(F)cc4)c23)cc1` belongs inactive: -16.2%.
Turning to `CNCCCCOc1ccccc1Cc1ccccc1`, the “activity change, negative = inhibition” value is inactive: -16.4%.
As for `CC(C)C1N=C2c3ccccc3N=C(SCC(=O)NCc3ccccc3Cl)N2C1=O` (centres undefined), the “activity change, negative = inhibition” value is inactive: -24.5%.
For `COCCCOc1cc(C[C@@H](C[C@H](N)[C@@H](O)C[C@H](C(=O)NCC(C)(C)C(N)=O)C(C)C)C(C)C)ccc1OC` the value was “inactive”; for `COc1ccc(OC)c(CNC(=O)c2c(C)oc3ncn(C)c(=O)c23)c1`, inactive: -3.27%.
Consider `COc1ccc(N2CC(NC(=O)c3ccco3)CC2=O)cc1OC` (centres undefined), for which the “activity change, negative = inhibition” value was inactive: -8.26%.
Consider `COc1ccc(CNC(=O)c2ccc3c(c2)N(Cc2ccccc2C)C(=O)c2ccccc2S3=O)cc1` (centres undefined), for which the “activity change, negative = inhibition” value was inactive: -17.1%.
To `O=C(NCc1ccc(F)cc1)C1CCN(c2ncnc3c2nc2n3CCCCC2)CC1` belongs inactive: -0.992%.
`COc1ccc(CNc2oc(/C=C/c3cccc(OC)c3)nc2C#N)cc1`: the “activity change, negative = inhibition” value was inactive: -15.3%.
To `Nc1ccccc1N` belongs inactive: 32.6% [at 116 µM].
To `COc1cc(C(CC(=O)Nc2cc(C)ccc2C)N2Cc3ccccc3C2=O)cc(OC)c1OC` (centres undefined) belongs inactive: -21.5%; to `CC(=O)c1ccc(NC(c2ccc(F)cc2)c2nnc(-c3ccccc3)o2)cc1` (centres undefined), inactive: 1.55%.
Consider `CC(C)(C)OC(=O)N1CCC(c2c(C(=O)N3CCN(c4ccccn4)CC3)cnn2-c2ccccc2Cl)CC1`, for which the “activity change, negative = inhibition” value is inactive: -9.17%.
Turning to `CCOCCCNC(=O)c1cn(CC)c2ccc(S(=O)(=O)N3CCc4ccccc4C3)cc2c1=O`, the “activity change, negative = inhibition” value was inactive: -7.58%.
Regarding `Cc1ccc2nc(-c3ccncc3)c(Nc3ccc(C(C)C)cc3)n2c1`, the “activity change, negative = inhibition” value was inactive: -16.7%.
Consider `CCc1ccc(Nc2sc(C(=O)c3ccccc3)c(N)c2S(C)(=O)=O)cc1`, for which the “activity change, negative = inhibition” value was inactive: -21.3%.
For `CCOCCc1nn2c(=O)cc(COC(=O)CNC(=O)c3ccc(F)cc3)nc2s1` the value was inactive: -8.9%; for `COC(=O)c1c(-c2cccs2)csc1NC(=O)c1cc(OC)c(OC)c(OC)c1`, inactive: -22%; for `CC(C)CCNC(=O)c1nn(C)c2c1CSc1ccccc1-2`, inactive: 6.58%.
For `COc1ccc(-n2ccn(CC(=O)Nc3ccc(C)c(C)c3)c(=O)c2=O)cc1OC` the value was inactive: -15.3%; for `COc1ccc(-c2cn3c(n2)sc2cc(C(=O)Nc4ccc(F)cc4Cl)ccc23)cc1`, inactive: 24.4%; for `CCOc1cc2[nH]c(=O)n(CCCC(=O)NCc3ccc(OC)cc3)c(=O)c2cc1OCC`, inactive: -6.09%.
To `Cc1ccc(F)cc1NC(=O)CCSc1nc(-c2ccco2)cc(C(F)(F)F)n1` belongs inactive: -23.9% [at 11.5 µM].
